Broadly, the stoichiometry N is the number of molecules, sites or subunits per partner or assembly.

The data set concerns the molecule itself. The experiment in a line: FRET or BRET. For orientation: Bioluminescence resonance energy transfer reports proximity on the nanometre scale.

B1: EphA2 receptor tyrosine kinase, wild-type (EphA2-15aa-mTurq / EphA2-15aa-eYFP) (receptor)
chain: [skipping about 500 residues]IGGVAVGVVLLLVLAGVGFFIHRRRKNQRARQSPEDVYFSKSEQLKPLKTYVDPHTYEDPNQAVLKFTTEIHPSCVTRQKVIGAGEFGEVYKGMLKTSSGKKEVPVAIKTLKAGYTEKQRVDFLGEAGIMGQFSHHNIIRLEGVISKYKPMMIITEYMENGALDKFLREKDGEFSVLQLVGMLRGIAAGMKYLANMNYVHRDLAARNILVNSNLVCKVSDFGLSRVLEDDPEATYTTSGGKIPIRWTAPEAISYRKFTSASDVWSFGIVMWEVMTYGERPYWELSNHEVMKAINDGFRLPTPMDCPSAIYQLMMQCWQQERARRPKFADIVSILDKLIRAPDSLKTLADFDPRVSIRLPSTSGSEGVPFRTVSEWLESIKMQQYTEHFMAAGYTAIEKVVQMTNDDIKRIGVRLPGHQKRIAYSLLGLKDQVNTVGIPI
For the protein B1, the “stoichiometry N” value was found to be 2.
